Source: ChEMBL document CHEMBL1201862, “PubChem BioAssay data set” (2004)
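Briefly, cells in 96-well plates were exposed to five compound concentrations for 48 h, and endpoints were estimated by linear interpolation. GI50 marks 50% less growth.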 Active and inactive are the calls of the source. No stated cut-off is given here; in the data, active = GI50 up to about 1.1 µM and inactive = higher. Square brackets hold non-standard residues; d marks the D form. Peptide text beside a SMILES is read from it. * marks the point of attachment. Phe(4-NO2) = N[CH](Cc1ccc([N+](=O)[O-])cc1)C(=O)O; Cbz = O=C(OCc1ccccc1)*

Test system: NCI-H322M
Assay: NCI anticancer screen, dose series, 48 h

| SMILES | GI50 |
| --- | --- |
| NC1c2c(Cl)sc(Cl)c2C(=O)C1O (centres undefined) | inactive: 69.3 µM |
| N#CC(NNC(=O)c1ccccc1O)c1c(O)ccc2ccccc12 (centres undefined) | inactive: 4.05 µM |
| CCOc1ccc2[nH]c3c(C)c4ccncc4c(C)c3c2c1 | inactive: 1.17 µM |
| Cc1nc2nn[nH]n2c(=O)c1CCO | inactive: > 100 µM |
| O=C1NC(=O)/C(=C/c2ccc(S(=O)(=O)N/N=C/c3ccc(Cl)cc3)cc2)N1 | inactive: > 100 µM |
| O=[N+]([O-])c1cn[n+]([O-])c2ccccc12 | inactive: 14.1 µM |
| COc1ccc(/C(Cl)=C(\C=O)c2ccc(OC)c(OC)c2)cc1OC | inactive: 99.5 µM |
| CN1C(=O)c2c(c3c4ccccc4n(C4OC(CO)C(O)C(O)C4O)c3c3[nH]c4ccccc4c23)C1=O (centres undefined) | inactive: 2.96 µM |
| CC(NC(=O)C(=O)N/N=C1\C[C@@H](c2ccccc2)Nc2ccccc21)c1ccccc1 (some centres undefined) | inactive: > 100 µM |
| S=C1SCN(C2CCCCCCCCCCC2)CN1C1CCCCCCCCCCC1 | inactive: > 100 µM |
| CCC(CC)NC1=C(NC(C)=O)C(=O)c2ccccc2C1=O | inactive: > 50 µM |
| COc1ccc(C2N3CCCCC3[C@@H]3c4[nH]c5ccccc5c4CCN23)c(OC)c1 (some centres undefined) | inactive: 37.5 µM |
| N#Cc1cc([N+](=O)[O-])ccc1NC(=O)/C(=N\NC(=O)c1ccncc1)C(c1cnc2ccc([N+](=O)[O-])cc2n1)[N+](=O)[O-] (centres undefined) | inactive: 4.6 µM |
| COc1cc(-c2cc(O)c3cc4c(cc3n2)OCO4)cc(OC)c1OC | inactive: 43.2 µM |
| O=C(O)C1C2C=CC(O2)C1C(=O)NCc1ccncc1 (centres undefined) | inactive: > 100 µM |
| COc1ccc2c(c1)CC1(O)COc3cc(OC)ccc3C1O2 (centres undefined) | inactive: > 100 µM |
| COC(C)(C)/C=C/c1[nH]c2ccccc2c1CC(=O)NCCc1cn(C(c2ccccc2)(c2ccccc2)c2ccccc2)cn1 | inactive: 7.38 µM |

| SMILES | GI50 |
| --- | --- |
| N=C(NC(=S)N1CCCCC1)N1CCCCC1 | inactive: > 100 µM |
| O=C(c1ccccc1)c1c(CC(O)c2ccccc2)n(C(=O)c2ccccc2)c2ccccc12 (centres undefined) | inactive: 71.6 µM |
| O=[N+]([O-])c1ccc(Cc2nc3ccccc3s2)cc1 | inactive: > 100 µM |
| OCCN(CCO)c1ccc2c(C(F)(F)F)cc(C(F)(F)F)nc2n1 | inactive: > 100 µM |
| CCOC(=O)CCC(NC(=O)OCc1ccccc1)C(=O)NC(CCC(=O)OCC)C(=O)NC(Cc1ccc([N+](=O)[O-])cc1)C(=O)NC(CCC(=O)OCC)C(=O)NC(CCC(=O)OCC)C(=O)OCC (centres undefined) (Cbz-E(OEt)E(OEt)[Phe(4-NO2)]E(OEt)E(OEt)-OEt; configuration not given here) | inactive: > 100 µM |
| O=P(O)(O)OP(=O)(O)O | inactive: > 100 µM |
| NC(=O)c1ncn(C2OC(CO)C(O)C2O)c1O (centres undefined) | inactive: > 100 µM |
| C/C1=C\CC[C@@]2(C)O[C@@H]2C[C@@H]2[C@H](C/C(C)=C/CC1)OC(=O)C21CCN=N1 (some centres undefined) | inactive: > 75 µM |
| CCOP(=O)(OCC)C(F)(F)Cc1cnc(C)c2c1COC(C)(C)O2 | inactive: > 10 µM |
| CC[C@@]1(O)C(=O)OCc2c1cc1n(c2=O)Cc2cc3c(NC(=O)CN)cccc3nc2-1 | inactive: 4.85 µM |
| O=C(OCCC12CC3CC(CC(C3)C1)C2)c1ccc(NCc2cc(O)ccc2O)cc1 | inactive: 8.73 µM |
| CC(C)C1(NC(=O)C2CC3c4cccc5[nH]cc(c45)CC3N(C)C2)OC2(O)C3CCCN3C(=O)C(Cc3ccccc3)N2C1=O (centres undefined) | inactive: 34.8 µM |
| Cc1ccc(S(=O)(=O)Nc2cc(O)nc3c2CCC3)cc1 | inactive: > 100 µM |
| COC(=O)Nc1nc(=O)c2ccccc2[nH]1 | inactive: > 100 µM |
| COc1ccccc1N1CCN(Cn2c(=O)oc3cccnc32)CC1 | inactive: > 100 µM |
| CC(=O)NC1C(OCc2ccccc2)OC(CO)C(O)C1OC(C)C(=O)NC(C)C(=O)N[C@@H](CCC(=O)OCCCNC1c2ccccc2Nc2cccc([N+](=O)[O-])c21)C(N)=O (some centres undefined) | active: 0.01 µM |
| Nc1nc(Nc2ccccc2)sc1C(=O)c1ccco1 | inactive: 16.9 µM |
